From PubChem BioAssay AID651820 (National Center for Advancing Translational Sciences (NCATS), 2012)
In all, about 340,000 compounds went through this assay and about 12,000 (3.5%) were called active. This list was built around the results that the source calls inconclusive (neither active nor inactive); the mix of calls is not that of the screen. Calls follow the shape of the dose curve; as a rule, active = well fitted inhibition curve with a large enough effect; inconclusive = small, poorly fitted or top-dose-only effect, or another doubt; inactive = no such curve, though single readings can be large or run the other way. Potencies of inconclusive entries are left out as doubtful fits.

experiment: qHTS Assay for Inhibitors of Hepatitis C Virus (HCV); details: Huh7.5.1 HCVcc-Cre (HCVcc is cell-culture hepatitis C virus) infection, luciferase reporter, 44 h; activity change, negative = inhibition: at 41.8 µM (top of the series)
In short: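 Cells (1,000/well) were plated 4 h before compound, then infected with HCVcc-Cre virus (~0.5 moi). After 44 h further culture, infection was read as luciferase luminescence following a 15 min substrate incubation at room temperature.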
% is scaled to controls: 0 for no effect and ±100 for the full control effect; potency is read from the fitted curve at half-maximal effect; tags tell the direction and shape of the fitted curve.

| Compound | Potency | activity change, negative = inhibition |
| --- | --- | --- |
| CCOC(=O)c1ccccc1NC(=O)c1cccnc1 | inconclusive [inhibitor, single point] | – |
| OCCNc1nc(-c2ccccc2)c2cc(Br)ccc2n1 | inconclusive [inhibitor, single point] | – |
| C=CCNC(=O)NC(=O)COC(=O)/C(C#N)=C/c1cc(C)n(CC(C)C)c1C | inconclusive [inhibitor, single point] | – |
| COc1ccc(-c2nnc(SCc3cc(C)cc(C)c3)o2)cc1 | inconclusive [inhibitor, partial curve] | – |
| COc1ccc(Cl)cc1Nc1nc(C)nc2c1oc1ccccc12 | inconclusive [inhibitor, partial curve] | – |
| Cc1ccccc1-c1nc(Cc2ccccc2)no1 | – | inactive: 21.2% |
| COc1cccc(NC(=O)CN(C)CC(=O)c2c(C)[nH]c3ccccc23)c1 | – | inactive: -24% |
| CCc1cccc(CC)c1NC(=O)COC(=O)CC1c2ccccc2CCN1S(=O)(=O)c1ccccc1 (configuration not stated) | active: 7.08 µM | – |
| O=C(NCCCCc1ccccc1)C1CC(c2ccccc2[N+](=O)[O-])=NO1 (configuration not stated) | – | inactive: -12.1% |
| CCCOc1ncnc2c1[nH]c1ccc(C)cc12 | active: 12.6 µM | – |
| O=C(COc1ccc(C(=O)NCCc2ccccc2)cc1)Nc1ccccc1 | – | inactive: 2.05% |
| Cc1ccc(/C=C(\C#N)C(=O)NCc2ccco2)o1 | – | inactive: 1.72% |
| COc1ccccc1-n1ccnc1SCC(=O)NCc1ccco1 | – | inactive: 26.5% |
| COc1ccc(OCc2cc(C(=O)N3CCCC(CO)C3)no2)c2ccccc12 (configuration not stated) | inconclusive [inhibitor, single point] | – |
| COc1cc(Cl)c(CN2CCC(CO)(CCOc3ccccc3)CC2)cc1OC | inconclusive [inhibitor, partial curve] | – |
| Cc1cccc(NC(=O)c2nc(S(=O)(=O)Cc3ccccc3)ncc2Cl)c1 | inconclusive [inhibitor, single point] | – |
| CCC(C)c1ccc(O)c(/C=N/O)c1 (configuration not stated) | inconclusive [inhibitor, single point] | – |
| NS(=O)(=O)c1ccc(CCNC(=O)c2cc(-c3cccs3)nc3ccccc23)cc1 | inconclusive [inhibitor, partial curve, poor fit] | – |
| O=C1C(=O)N(CNc2cccnc2)c2ccccc21 | – | inactive: -27.7% |
| O=C(NC(=S)N1CCN(c2ccc([N+](=O)[O-])cc2)CC1)c1ccc(F)cc1 | inconclusive [inhibitor, partial curve, poor fit] | – |
| COc1cccc(C(=O)Nc2cc(C(=O)NCc3ccc(C)cc3)ccc2N2CCC3(CC2)CC(c2ccccc2)=NO3)c1 | – | inactive: -11.5% |
| Cn1c(=O)n(Cc2ccccc2)c(=O)c2c1nc1n2CCN1Cc1ccco1 | inconclusive [inhibitor, single point] | – |
